In assay [1] the target is T1, FLAG-tagged LRRC4 (human) (UniProt Q9HBW1).
T1 sequence: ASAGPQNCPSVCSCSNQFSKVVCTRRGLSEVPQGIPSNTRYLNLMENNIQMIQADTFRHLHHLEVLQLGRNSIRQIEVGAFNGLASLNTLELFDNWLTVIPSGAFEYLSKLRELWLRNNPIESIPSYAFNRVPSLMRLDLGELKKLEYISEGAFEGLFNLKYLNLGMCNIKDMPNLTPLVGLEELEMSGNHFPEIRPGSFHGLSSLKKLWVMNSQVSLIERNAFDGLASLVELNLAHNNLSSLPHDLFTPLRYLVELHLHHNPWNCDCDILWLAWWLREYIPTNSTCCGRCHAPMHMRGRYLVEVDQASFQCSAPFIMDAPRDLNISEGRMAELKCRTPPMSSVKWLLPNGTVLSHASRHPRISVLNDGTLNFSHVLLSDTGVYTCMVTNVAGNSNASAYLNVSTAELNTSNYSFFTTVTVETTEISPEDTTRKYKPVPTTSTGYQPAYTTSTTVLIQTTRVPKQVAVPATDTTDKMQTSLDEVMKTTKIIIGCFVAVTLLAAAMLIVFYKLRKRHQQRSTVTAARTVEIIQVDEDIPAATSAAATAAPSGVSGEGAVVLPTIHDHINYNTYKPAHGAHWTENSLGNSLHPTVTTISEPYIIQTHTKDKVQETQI
In words: co-IP; transfected HEK293 or U251 cells lysed in IP buffer (25 mM Tris pH 7.5, 150 mM NaCl, 1% Triton X-100, 1 mM EDTA); antibody at 4 °C overnight, Protein A/G magnetic beads 2 h at 4 °C, four washes; western blot. In general terms: Immunoblotting shows a protein as a band on a membrane.

Sequences of proteins named here, by UniProt entry; tags and fusion partners are left off. A change or cut given only in a name is not applied to a line headed by its entry. A line that says so, or that is headed by a name, gives the form on record, which may keep a tag or linker. Residues count along the entry.
UniProt Q8TB45: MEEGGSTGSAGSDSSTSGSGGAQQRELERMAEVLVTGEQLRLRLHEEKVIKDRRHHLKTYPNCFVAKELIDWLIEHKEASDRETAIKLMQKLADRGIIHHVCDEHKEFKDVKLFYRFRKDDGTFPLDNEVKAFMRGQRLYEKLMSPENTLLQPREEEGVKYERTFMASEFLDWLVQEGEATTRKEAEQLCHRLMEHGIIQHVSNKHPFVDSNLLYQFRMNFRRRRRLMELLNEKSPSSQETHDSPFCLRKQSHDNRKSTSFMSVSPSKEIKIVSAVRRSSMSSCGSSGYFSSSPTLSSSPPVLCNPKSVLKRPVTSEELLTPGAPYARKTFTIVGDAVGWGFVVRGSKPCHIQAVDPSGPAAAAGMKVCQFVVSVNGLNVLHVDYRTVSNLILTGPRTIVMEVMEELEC
GFP-tagged DEPTOR DEP (1-329): residues 1-329 of Q8TB45
GST-fused PDZ domain of DEPTOR: residues 330-407 of Q8TB45

Assay [2] has as its target T2, FLAG-tagged LRRC4 (443-653) (human) (UniProt Q9HBW1).
T2 sequence: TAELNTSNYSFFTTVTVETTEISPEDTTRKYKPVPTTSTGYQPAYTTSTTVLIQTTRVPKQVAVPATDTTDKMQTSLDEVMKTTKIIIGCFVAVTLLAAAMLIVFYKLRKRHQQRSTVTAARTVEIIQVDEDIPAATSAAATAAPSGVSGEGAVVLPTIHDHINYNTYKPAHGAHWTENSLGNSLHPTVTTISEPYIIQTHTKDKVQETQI
Described as above.

The next assay has as its target GFP-tagged DEPTOR (UniProt Q8TB45). The assay is described as above.
For assay [3], the target named is GFP-tagged DEPTOR PDZ(330-407) (UniProt Q8TB45). The description is as above.
The target of assay [4] is GFP-tagged DEPTOR DEP (1-329) (UniProt Q8TB45). Described as above.
Assay [5] deals with GST-fused PDZ domain of DEPTOR (UniProt Q8TB45). Description: pull-down; purified GST fusion proteins of DEPTOR on glutathione-Sepharose 4B beads incubated 4 h with lysate of HEK293 cells transfected with FLAG-tagged LRRC4, IP buffer, four washes; western blot; only the target purified.
The target in assay [6] is GST-fused full-length DEPTOR (UniProt Q8TB45). Described as above.

Results are given in words; binding and its absence hold for the method and conditions named. In cells and extracts the contact can be indirect. Some entries that bind do so weakly or less than the wild type. For some of these results: Where a sequence is shown, tags or fusion partners need not be part of it.

With “endogenous DEPTOR (from UniProt Q8TB45 1-409)”, the binding result in assay [1] is “binds”.

Take “DEPTOR (pCDNA3.1-DEPTOR) (from UniProt Q8TB45 1-409)”: the binding entry in assay [2] is listed as “binds”.

B1: LRRC4 of Fig. 6b (protein, UniProt Q9HBW1 39-653)
chain: T1 sequence
As for B1, the binding result in the assay with GFP-tagged DEPTOR was “binds”.

B2: LRRC4 (pCDNA3.1-LRRC4) (protein, UniProt Q9HBW1 39-653)
chain: T1 sequence
For B2, the binding entry is “binds” in assay [3] and “no binding” in assay [4].

B3: FLAG-tagged LRRC4 (protein, UniProt Q9HBW1 39-653)
chain: T1 sequence
As to B3, the binding result in assay [5] and in assay [6] was “binds” each time.

The values above are taken from PMC7269909.
